This is one part of the list. Shown are side measurements of this screen, not its main read-out; they come without a call.
Target: GTPase KRas (Homo sapiens) (UniProt P01116)
Experiment: Fragment capture on engineered cysteines, share of protein labelled (AID 2202238)
Design: protein at 5 µM with 500 µM competing thiol for 1.5 h
Conditions: KRAS G12D cysteine mutants, disulfide tethering, MALDI-TOF labeling, stronger effect = higher value, fragment at 500 µM
[1] = measured here: G75C mutant labeling
[2] = measured here: H94C mutant labeling
[3] = measured here: I36C mutant labeling
[4] = measured here: L120C mutant labeling
[5] = measured here: M67C mutant labeling
[6] = measured here: M72C mutant labeling
[7] = measured here: N86C mutant labeling
[8] = measured here: P121C mutant labeling
[9] = measured here: S122C mutant labeling
[10] = measured here: S136C mutant labeling
[11] = measured here: G60C mutant labeling
[12] = measured here: N26C mutant labeling

Sequence of UniProt P01116 (P01116 whole entry, looked up, the tested form may be a part): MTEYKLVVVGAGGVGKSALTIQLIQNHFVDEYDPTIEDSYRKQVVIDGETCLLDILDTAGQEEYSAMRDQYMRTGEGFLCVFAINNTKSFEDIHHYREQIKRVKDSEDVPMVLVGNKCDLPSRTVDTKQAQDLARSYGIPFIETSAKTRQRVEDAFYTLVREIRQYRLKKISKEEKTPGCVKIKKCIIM

Structure (SMILES) | percent labeling [1] [%] | percent labeling [2] [%] | percent labeling [3] [%] | percent labeling [4] [%] | percent labeling [5] [%] | percent labeling [6] [%] | percent labeling [7] [%] | percent labeling [8] [%] | percent labeling [9] [%] | percent labeling [10] [%] | percent labeling [11] [%] | percent labeling [12] [%]
CCc1ccc(C2COCCN2C(=O)CCS)o1 (configuration not stated) | 21.8 | 51.8 | 44 | 33.5 | 46.2 | 45 | 34.2 | 39.8 | 36 | 64.2 |  | 
O=C(NCCS)c1cccc2ccn(Cc3ccccc3)c12 | 14.4 | 19.2 | 14.1 | 14 | 11.7 | 30.1 | 13.4 | 14.6 | 9.9 | 15.3 | 45 | 26.3
COCCn1cc(C(=O)NCCS)c(=O)cc1C | 13.3 | 31.7 | 22.2 | 46.9 | 37.6 | 41.6 | 24.3 | 29.7 | 32.9 | 49.3 | 32 | 34.2
COC(=O)c1cnc(CC2CCN(C(=O)CCS)CC2)s1 | 15 | 33.9 | 35.4 | 31.1 | 40.5 | 32.5 | 26.5 | 33.2 | 32 | 53.1 |  | 
O=C(CCS)NCc1cnc(-c2ccccc2)[nH]1 | 16 | 24.3 | 32.4 | 36.7 | 57.6 | 33.2 | 21.7 | 39.3 | 34.5 | 48.7 |  | 
CN(C)C(=O)Cc1ccc(S(=O)(=O)N2CCC(C(=O)NCCS)CC2)cc1 | 16.6 | 29.6 | 27.6 | 31.1 | 31.4 | 18.8 | 25.7 | 29.8 | 31.3 | 41.9 | 28.7 | 39.7
O=C(CCS)NCc1noc2cc(F)ccc12 | 26.2 | 36 | 39.6 | 28.9 | 40.2 | 43.3 | 31.2 | 31.6 | 31.2 | 45.4 |  | 
O=C(Cc1cc2cc(Cl)ccc2[nH]1)NCCS | 8.9 | 12.9 | 9.6 | 14.6 | 8.6 | 18.1 | 8.2 | 10.7 | 8 | 11.1 | 28.3 | 21
O=C(NCCS)C1CCN(S(=O)(=O)N2CCCCC2)CC1 | 12.1 | 29.3 | 20.2 | 26.2 | 23.1 | 18.4 | 21.7 | 19.6 | 20.1 | 25.4 | 28.2 | 33.2
CC(C)(C)C(=O)N1CCOC(C(=O)NCCS)C1 (configuration not stated) | 9.4 | 31.1 | 20.9 | 34.8 | 25.8 | 11.5 | 23.6 | 29.1 | 32.1 | 45.8 | 19.2 | 31.7
O=C(CCS)N1CCC(c2n[nH]c(=O)o2)CC1 | 8.8 | 22 | 29.1 | 26.1 | 29.8 | 13.2 | 27.9 | 35.4 | 36.4 | 50 |  | 
O=C(NCCS)c1cc(-c2ccn[nH]2)ccc1F | 25.3 | 34.8 | 22.3 | 33 | 32.3 | 62 | 32.5 | 31.4 | 26.5 | 49.5 | 57.9 | 53.6
O=C(CCc1sccc1Br)NCCS | 27.4 | 33 | 22.6 | 38.3 | 44.1 | 50 | 25.3 | 33 | 24.3 | 36.3 | 60.1 | 37.7
CC(C)Cc1nnc(NC(=O)CN(C)C(=O)CCS)s1 | 14.7 | 30.5 | 37.2 | 46.1 | 32.8 | 51.6 | 33.1 | 31.7 | 31.1 | 49 |  | 
COC(=O)C1CC2(CCS(=O)(=O)CC2)CN1C(=O)CCS (configuration not stated) | 5 | 26.9 | 25.8 | 23.3 | 30.3 | 7.5 | 13.4 | 29.7 | 27.4 | 41.8 |  | 
O=C(CCS)NC1CCCOC1c1ccncc1 (configuration not stated) | 12.3 | 25.7 | 38.4 | 21.5 | 37.5 | 11.5 | 12.7 | 29.7 | 30.9 | 45.3 |  | 
O=C(NCCS)c1cnc(-c2ccoc2)s1 | 0 | 0 | 2.4 | 3.3 | 4.8 | 0 | 0 | 0 | 8 | 6.6 | 1.4 | 10.4
COc1cc(Br)c(CCNC(=O)CCS)cc1OC | 11.8 | 32.4 | 30.1 | 23 | 33.3 | 33.8 | 20.7 | 23 | 18.9 | 45.4 |  | 
O=C(CCS)N1CCn2cc(Br)cc2C1 | 0 | 10.9 | 0 | 6.8 | 7.6 | 0 | 3.3 | 7.8 | 6.6 | 7.3 |  | 
O=C(CCS)N1CCC(CN2CCCCC2=O)CC1 | 10.6 | 31.3 | 34.8 | 36.9 | 35.8 | 17.8 | 22.1 | 33.2 | 38.7 | 57 |  | 
COc1cc(CNC(=O)CCS)ccc1OC(F)F | 13.3 | 42.2 | 44.7 | 31.2 | 37.8 | 40.5 | 35.1 | 14 | 34.3 | 52.7 |  | 
O=C(NCCS)c1cc(-c2cccc(F)c2)no1 | 0 | 4.8 | 5.3 | 8.1 | 6.8 | 36 | 0 | 0 | 7.5 | 11.4 | 5.6 | 14.4
Cc1c(C(=O)NCCS)ccc2cnc(C3CC3)n12 | 0 | 0 | 0 | 0 | 0 | 3.2 | 7.9 | 5.7 | 9.5 | 13.4 | 0 | 8.5
O=C(NCCS)c1cnccc1Oc1ccccc1 | 24.8 | 40 | 16.2 | 37.4 | 25.1 | 20.4 | 16.8 | 29.1 | 17.3 | 67.6 | 44.4 | 30

Structure (SMILES) | percent labeling [1] [%] | percent labeling [2] [%] | percent labeling [3] [%] | percent labeling [4] [%] | percent labeling [5] [%] | percent labeling [6] [%] | percent labeling [7] [%] | percent labeling [8] [%] | percent labeling [9] [%] | percent labeling [10] [%] | percent labeling [11] [%] | percent labeling [12] [%]
Cc1cc(F)ccc1CC1(C(=O)NCCS)CC1 | 16.2 | 22.5 | 16.8 | 22.4 | 22.5 | 37.2 | 13.7 | 14.7 | 14.7 | 29.3 | 42 | 33.4
O=C(CCS)Nc1cnn(Cc2ccccn2)c1 | 11.7 | 26.9 | 40.2 | 30.1 | 40.4 | 24.9 | 31.3 | 29.8 | 29.7 | 55.7 |  | 
O=C(CCS)NCc1cnc2ccccc2c1 | 20.6 | 31.8 | 45.3 | 23.1 | 47.7 | 41.2 | 27.1 | 30.7 | 29.6 | 54.3 |  | 
CN(C)C(CCC(=O)NCCS)c1ccccc1 (configuration not stated) | 13.8 | 35.5 | 32.4 | 32.6 | 45.8 | 18.6 | 25.8 | 31.2 | 27.6 | 62.5 | 45.3 | 39.5
O=C(CCS)NCc1cccc(C(=O)N2CCOCC2)c1 | 7.4 | 30.6 | 43.7 | 29.1 | 36.5 | 11.8 | 19.6 | 30.2 | 28 | 47.6 |  | 
COc1nc(CNC(=O)CCS)ccc1OCc1ccccc1 | 11.6 | 20.5 | 20.6 | 14 | 39.1 | 27.3 | 14.7 | 13.7 | 13 | 27.8 |  | 
O=C(Nc1ccc2c(c1)CCO2)C1CCCCN1C(=O)CCS (configuration not stated) | 10.1 | 26.4 | 21.2 | 22.1 | 23.8 | 23.2 | 11.2 | 20.3 | 14.6 | 30.9 |  | 
CCn1cc(CC(=O)NCCS)c2ccccc21 | 21.7 | 24.6 | 19.1 | 33 | 10.4 | 30.9 | 14.7 | 17.3 | 16.5 | 41.7 | 31.7 | 29.5
O=C(Cc1ccccc1Nc1c(Cl)cccc1Cl)NCCS | 16.9 | 16.7 | 11.7 | 27.7 | 7.4 | 32.7 | 7.2 | 16.7 | 3.6 | 18.7 | 60.6 | 18.8
Cn1ccnc1CN1CCN(C(=O)CCS)CC1 | 4.2 | 17.9 | 22.5 | 18.9 | 26.4 | 5.8 | 5.9 | 18.6 | 18.2 | 45.5 |  | 
O=C(NCCS)c1cn([C@@H]2COC[C@H]2O)nn1 | 14.6 | 30.5 | 25.6 | 43.2 | 33.5 | 30.4 | 29.3 | 31.3 | 36.8 | 46.7 | 23.4 | 44.8
O=C(NCCS)c1cc(C2CC2)nc2ccccc12 | 17.1 | 22.4 | 11.6 | 20.7 | 15.5 | 31.7 | 10.7 | 17.2 | 10.2 | 43.5 | 39.4 | 37.2
O=C(CCS)NCc1ccc2c(c1)CC(=O)N2 | 0 | 9.1 | 21.2 | 7.2 | 10.2 | 6.2 | 2.8 | 18 | 11.6 | 18.8 |  | 
COc1ccc(C(=O)NCCS)c(OC(F)F)c1 | 26.4 | 32.5 | 21.8 | 37 | 27.7 | 44.6 | 31.2 | 43.2 | 27.7 | 39.9 | 41.7 | 40
O=C(CCS)N1CCN(c2ncnc3ccsc23)CC1 | 22.1 | 30.1 | 35.2 | 24.7 | 45.5 | 35.7 | 17.4 | 30.2 | 24.6 | 54.6 |  | 
O=C(CCS)Nc1ncn(C2CCCCC2)n1 | 18.4 | 27.5 | 35.2 | 35.9 | 24.6 | 31.1 | 22.3 | 30.6 | 33.8 | 50.1 |  | 
CN1C(=O)NC2(CCN(C(=O)CCS)CC2)C1=O | 9.5 | 29 | 34.8 | 31.1 | 36.9 | 17.7 | 19.9 | 33 | 36.6 | 44.9 |  | 
CCN(CC)C(=O)c1cc(NC(=O)CCS)nn1C | 12.2 | 36.4 | 35.2 | 45.3 | 29.8 | 33 | 28 | 31.7 | 37.3 | 52.2 |  | 
O=C(CCS)Nc1cncc(-c2nccs2)c1 | 20 | 29 | 30 | 26.2 | 24.5 | 50.4 | 17.8 | 23.5 | 24.9 | 46.9 |  | 
O=C(CCS)N1CC(Oc2ccc(Cl)cc2)C1 | 18.3 | 19.9 | 21.2 | 19.8 | 30.7 | 28 | 15.4 | 25.7 | 15.8 | 31.4 |  | 
O=C(CC1(CCc2ccccc2)CCCC1)NCCS | 9.7 | 10.3 | 7.1 | 21.7 | 10.1 | 16 | 13.5 | 19.4 | 9 | 19.8 | 41.6 | 22.7
O=C(CCS)NCC12CC(C1)C(C(F)(F)F)O2 (configuration not stated) | 10.9 | 35 | 36.1 | 33 | 34.3 | 23 | 31.3 | 36.6 | 44 | 50.9 |  | 
COc1ccc2cc(CNC(=O)CCS)ccc2c1 | 6.1 | 8.9 | 12.3 | 10 | 18.1 | 13.5 | 4.5 | 11.8 | 8.7 | 20.1 |  | 
O=C1CCC(c2ccc(C(=O)NCCS)cc2)N1 (configuration not stated) | 15.6 | 26.6 | 22.5 | 30.5 | 27 | 27.5 | 26.8 | 26.9 | 27.2 | 39.2 | 24.6 | 38.9
